# Laboratory results: PubChem BioAssay AID485281 (National Center for Advancing Translational Sciences (NCATS), 2010)
# Several values for one entry are separate records, joined by “and”; a condition that tells them apart may be missing. Identical values can stand only once. Hit rate of the full screen: of about 350,000 compounds, about 260 (0.074%) were called active. Inconclusive results, whose numbers are uncertain, are shown with a selection of clear calls. Calls follow the shape of the dose curve; as a rule, active = well fitted inhibition curve with a large enough effect; inconclusive = small, poorly fitted or top-dose-only effect; inactive = no such curve, though single readings can be large or run the other way. A potency beside an inconclusive call is a rough fit, not a confirmed value.
# Biological target: Ferritin light chain (Equus caballus) (UniProt P02791)
# UniProt P02791, sequence (P02791 whole entry, looked up): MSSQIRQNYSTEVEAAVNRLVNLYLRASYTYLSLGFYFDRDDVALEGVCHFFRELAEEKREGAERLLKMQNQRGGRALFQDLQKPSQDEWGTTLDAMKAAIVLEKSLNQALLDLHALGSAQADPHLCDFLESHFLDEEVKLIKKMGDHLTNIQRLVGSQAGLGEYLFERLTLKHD
# Test: qHTS Assay for Identification of Novel General Anesthetics; also: nearly all actives have a fitted effect of over 20% in size
# Settings: apoferritin/1-aminoanthracene competitive binding, fluorescence; activity change, negative = displacement: at 77.5 µM (top of the series)
# Summary of the method: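 Read-out: endpoint 1-AMA fluorescence, excitation 380 nm and emission 535 nm, after compounds sit 10 min at room temperature with 10 uM horse-spleen apoferritin in 50% saturated 1-AMA/PBS. Values come from four-parameter Hill fits.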
# % is scaled to controls: 0 for no effect and ±100 for the full control effect; potency is read from the fitted curve at half-maximal effect; tags tell the direction and shape of the fitted curve.
SMILES,Potency,"activity change, negative = displacement"
CCC1CCCCN1C(=O)c1ccc2nc(Cc3ccc(OC)cc3)oc2c1 (centres undefined),"inconclusive: 28.2 µM [inhibitor, partial curve]",
CCN(CC)CCN(C(=O)CN1C(=O)c2ccccc2C1=O)c1nc2cc3c(cc2s1)OCO3,"inconclusive: 31.6 µM [inhibitor, single point]",
COc1ccc(NC(=O)c2ccc3c(c2)c(C)c(C)n3Cc2ccc(F)cc2)cc1,,inactive: 42.9%
Nc1c(C(=O)NCc2ccccc2)nnn1Cc1ccccc1,"inconclusive: 7.94 µM [inhibitor, full curve]",
C=CCn1c(O)c(N=NC(=S)Nc2ccccc2F)c2ccccc21,"inconclusive: 35.5 µM [inhibitor, single point]",
CCC(C)NC(=O)c1cn(CC)c2ccc(S(=O)(=O)N3CCCCC3)cc2c1=O (centres undefined),"inconclusive: 35.5 µM [inhibitor, partial curve]",
Fc1ccccc1OCCCCSc1ncccn1,"inconclusive: 31.6 µM [inhibitor, partial curve]",
Cc1ccc(NC(=O)N2CCCC(c3nc(-c4ccc(F)cc4)no3)C2)cc1 (centres undefined),,inactive: -13.6%
CCN1CCCC1CN(Cc1cc2cc(C)ccc2[nH]c1=O)C(=O)Nc1ccccc1OC (centres undefined),"inconclusive: 28.2 µM [inhibitor, partial curve, poor fit]",
Cc1cc2nc3c(=O)[nH]c(=O)[nH]c3nc2c([N+](=O)[O-])c1N,"inconclusive: 4.47 µM [inhibitor, single point]",
Cc1ccc(C)c(N=Nc2nc3ccccc3n2C)c1,"inconclusive: 25.1 µM [inhibitor, partial curve]",
C=CCn1c(SCC(=O)O)nnc1-c1cccs1,,inactive: -8.7%
O=C(NC1CCCCC1)N(Cc1nc2ccccc2c(=O)[nH]1)C1CCCCC1,,inactive: -12.4%
CC(C)CNS(=O)(=O)c1ccc(CCC(=O)Nc2ccc3c(c2)OCCO3)cc1,"inconclusive: 39.8 µM [inhibitor, partial curve]",
Cc1ccc(F)c(C2C3C=CCCC3(C)C(=O)N2Cc2ccccc2)c1 (centres undefined),,inactive: 6.73%
CC1=CC(C)(C)N2C(=O)C(=Nc3ccc(O)cc3)c3cccc1c32,,inactive: -10.8%
COc1cc(C)nc(Oc2ccc(OCCOc3ccc(C)cc3)nn2)n1,"inconclusive: 22.4 µM [inhibitor, partial curve]",
Cc1ccc(C(=O)COC(=O)CN2C(=O)C3C4C=CC(C4)C3C2=O)cc1C (centres undefined),"inconclusive: 14.1 µM [inhibitor, partial curve]",
COc1ccc(CC(=O)Nc2nnc(SCc3ccccc3)s2)cc1S(=O)(=O)N1CCOCC1,"inconclusive: 6.31 µM [inhibitor, partial curve]",
CCC(=O)N(Cc1c(C)nn(-c2ccccc2)c1Cl)c1ccc(Cl)cc1,,inactive: -2.83%
CC(C)Cc1ccccc1O,"inconclusive: 31.6 µM [inhibitor, partial curve]",
COc1ccc(NC(=O)C2(c3cccs3)CCOCC2)cc1Cl,"inconclusive: 44.7 µM [inhibitor, single point]",

SMILES,Potency,"activity change, negative = displacement"
Cc1cccc[n+]1CCCCCCCCCC[n+]1ccccc1C,,inactive: -4.91%
O=C(CSc1ncccn1)N1CCC(Cc2ccccc2)CC1,"inconclusive: 22.4 µM [inhibitor, partial curve]",
O=C(NCc1ccccc1Cl)c1ccc(S(=O)(=O)Nc2cccc(C(F)(F)F)c2)cc1,"inconclusive: 22.4 µM [inhibitor, single point]",
O=C(CNc1ccccc1)NN=C1CCCC1,"inconclusive: 14.1 µM [inhibitor, partial curve]",
Cc1ccc(O)c(-c2cc(C(F)(F)F)[nH]n2)c1,"inconclusive: 28.2 µM [inhibitor, partial curve]",
O=C(c1ccccn1)C1CCCN(Cc2cn[nH]c2-c2cc3ccccc3o2)C1 (centres undefined),"inconclusive: 22.4 µM [inhibitor, partial curve]",
Cc1cccc(OCc2nc3ccccc3n2C)c1,"inconclusive: 28.2 µM [inhibitor, single point]",
CCc1ccc(NC(=O)[C@H](Cc2ccccc2)NC(=O)C2CCN(C(=O)[C@@H](N)CC(C)C)CC2)cc1,"inconclusive: 20 µM [inhibitor, partial curve]",
Cc1c(NC(=O)c2cc(-c3cccc(Cl)c3)on2)c(=O)n(-c2ccccc2)n1C,"inconclusive: 25.1 µM [inhibitor, partial curve]",
CCn1c(=Nc2ccc(N3CCOCC3)cc2)ccc2ccccc21,,inactive: 4.56%
Cc1ccc(OCC(=O)N(Cc2ccccc2)C(C)(C)C)c([N+](=O)[O-])n1,,inactive: 0.28%
Cc1ccc(NC(=O)CSc2nc3nccnc3c(=O)n2CCc2c[nH]c3ccccc23)cc1,,inactive: 39.6%
CC1CCCN(C(=O)CSCC(=O)Nc2nc(-c3cccs3)cs2)C1 (centres undefined),"inconclusive: 6.31 µM [inhibitor, full curve]",
Cc1cc(SCC(=O)c2cccc([N+](=O)[O-])c2)nc(=O)[nH]1,"inconclusive: 31.6 µM [inhibitor, partial curve]",
Cc1ccc(C2CC(C(F)(F)F)n3nc(C(=O)NCC4CCCO4)cc3N2)cc1 (centres undefined),"inconclusive: 31.6 µM [inhibitor, partial curve]",
COc1cc(CNc2ccc3[nH]c(=O)[nH]c3c2)ccc1OCc1ccccc1F,"inconclusive: 8.91 µM [inhibitor, partial curve] and inconclusive: 17.8 µM [inhibitor, partial curve]",
Cc1ccc(OCC(=O)N/N=C/C=C/c2ccco2)cc1,"inconclusive: 17.8 µM [inhibitor, partial curve]",
O=C(/C=C/c1ccccc1)C1=C(O)C(=O)N(CCO)C1c1cccc([N+](=O)[O-])c1 (centres undefined),,inactive: -13.8%
Cc1c(CC=C(Cl)Cl)c(=O)[nH]c2c(C)cccc12,,inactive: -5.18%
CC1=CC2=NC(=O)CC(C)(C(=O)N(CC(=O)NC(C)(C)C)C3CCCC3)N2C=C1 (centres undefined),,inactive: -8.42%
N#Cc1ccccc1OCC(=O)OCC(=O)c1ccc2c(c1)NC(=O)CO2,"inconclusive: 35.5 µM [inhibitor, partial curve]",
COc1ccccc1CNC(=O)CN1C(=O)CSc2ccc(S(=O)(=O)N(C)C)cc21,,inactive: -8.59%
